Measured values as given in patent US20260151501A1, “ANTIBODY-DRUG CONJUGATE COMPRISING ANTI-CLAUDIN-18.2 ANTIBODY, AND THERAPEUTIC USE THEREOF FOR CANCER” (ABTIS CO., LTD., priority 2022, published 2026).

Columns and labels:
SNU601 cell line = assay: In vivo drug efficacy, SNU601 gastric cancer tumor model; design: species or system BALB/c nude mouse; conditions: for Tumor weight (mean ± standard deviation): Day 28 after first administration
Experimental: The SNU601 cell line, which is a CLDN18.2-positive gastric cancer cell line, was cultured in an RPMI culture solution containing 10% FBS and 1% penicillin/streptomycin in an incubator under the conditions of 37° C. and 5% CO2. The SNU601 cell line was regularly sub-cultured once a week through trypsin-ethylenediaminetetraacetic acid (EDTA) treatment.
(§1) For tumor development, the SNU601 cell line (1×10^7) was mixed with serum-free medium and Matrigel, and the resulting mixture was subcutaneously inoculated into the left flank of each BALB/c nude mouse (purchased from Charles River Laboratories Japan Inc.). The mice were randomly assigned to eight groups (G1 to G8) on the basis that the average tumor volume in each group reached about 155 mm^3.
(§2) All animals were observed twice a day for mortality, abnormal symptoms, pain, and signs of stress, and once a day for clinical signs. The changes in body weight and the tumor volume were measured three times a week, and the tumor weight was determined after autopsy.
The tumor volume, tumor difference, and tumor growth inhibition were calculated as follows: […]
Tf is the last tumor volume measured before autopsy, and Ti is the first tumor volume measured.
Numerical data regarding the study was calculated as mean and standard deviation. Group variances were compared using the Bartlett's test at a 0.05 significance level for each parameter. When the difference between group variances was not significant, a parametric one-way analysis of variance (ANOVA) was performed. When a significant difference between means was indicated by ANOVA (p≤0.05), group mean comparison was performed between the control and each treatment group using the Dunnett's test. […] When significance was found by the Kruskal-Wallis test (p≤0.05), the significance of the difference between the control and each treatment group was assessed using the Dunn's test. Significance was reported at the levels of 0.05, 0.01 and 0.001 for the comparison of each group. All statistical analyses were performed using GraphPad PRISM® Version 5.0.

[1] = Plasma stability, mouse plasma; assay type: in vitro ADME; conditions: 37° C., 15 days, relative to day 0 (5 minutes)
Experimental: (§3) Centrifugation in the pretreatment process was performed under the conditions of 13,000 rpm and 4° C. for 10 minutes.
(§4) Human, monkey, rat, and mouse plasma were prepared.
(§5) For example, when the linker was cleaved in ADC-A, it was not included in total ADC.

[2] = Plasma stability, rat plasma; assay type: in vitro ADME; conditions: 37° C., 15 days, relative to day 0 (5 minutes)
Experimental: as §3, §4, §5

[3] = Plasma stability, human plasma; assay type: in vitro ADME; conditions: 37° C., 15 days, relative to day 0 (5 minutes)
Experimental: as §3, §4, §5

[4] = system: MIA PaCa-2 (CLDN18.2-) cell line; assay: Real-time cellular internalization, MIA PaCa-2 (CLDN18.2-); assay type: cell-based; conditions: no CLDN18.2 expression
Experimental: Real-time internalization measurement was performed according to the manuals of the reagents and equipment.
The prepared cell lines were cultured in DMEM containing 10% FBS and 1% penicillin/streptomycin (MIA PaCa-2˜CLDN18.2, MIA PaCa-2 (CLDN18.2-)) and RPMI1640 containing 10% FBS and 1% penicillin/streptomycin (SNU601) in an incubator under the conditions of 37° C. and 5% CO2. The MIA PaCa (CLDN18.2-), MIA PaCa-2˜CLDN18.2, and SNU601 cell lines were plated on 96-well plates at 3,000 to 5,000 cells/well.
Samples for internalization verification, antibody-A and ADC-A, were prepared according to the IncuCyte® Fabfluor-pH reagent manual.
Finally, antibody-A and ADC-A were diluted to each of 8, 4, and 2 μg/mL, and designated wells were treated with 50 μL of each. The internalization levels of the plates mixed with the sample were measured every hour using the IncuCyte® Live-Cell Analysis System.

[5] = Plasma stability, monkey plasma; assay type: in vitro ADME; conditions: 37° C., 15 days, relative to day 0 (5 minutes)
Experimental: as §3, §4, §5

[6] = Body weight and gastric histology in SNU601 tumor model mice; assay type: in vivo, BALB/c nude mouse; conditions: for effects on the changes in body weight: during the study period; for histological gastric lesions: even in the highest concentration administration group G8
Excerpt: as §1, §2

[7] = Day 1, 2 mg/kg intravenous injection once/day 1 (G2, G8)
[8] = Day 8, 2 mg/kg intravenous injection once/day 1 (G2, G8)
[9] = Day 15, 2 mg/kg intravenous injection once/day 1 (G2, G8)
[10] = Day 22, 2 mg/kg intravenous injection once/day 1 (G2, G8)
[11] = Day 28, 2 mg/kg intravenous injection once/day 1 (G2, G8)
[12] = 2 mg/kg intravenous injection once/day 1 (G2, G8)
[13] = Day 1, 1 mg/kg intravenous injection once/day 1 (G3, G4)
[14] = Day 1, 1 mg/kg intravenous injection twice/day 1 and day 7 (G5)
[15] = Day 1, 1.5 mg/kg intravenous injection once/day 1 (G6)
[16] = Day 1, 1.75 mg/kg intravenous injection once/day 1 (G7)
[17] = Day 28, 1 mg/kg intravenous injection once/day 1 (G3, G4)
[18] = Day 28, 1 mg/kg intravenous injection twice/day 1 and day 7 (G5)
[19] = Day 28, 1.5 mg/kg intravenous injection once/day 1 (G6)
[20] = Day 28, 1.75 mg/kg intravenous injection once/day 1 (G7)

B1: Antibody-A: anti-claudin18.2 antibody with heavy chain of SEQ ID NO: 16 and light chain of SEQ ID NO: 17 (antibody)
heavy: QVQLVESGGGVVQPGRSLRLSCAASGFSLTTYGVHWVRQAPGKGLEWVAVIWAGGSTNYNSALMSRFTISRDNSKNTLYLQMNSLRAEDTAVYYCARAAYYGNGLDYWGQGTMVTVSS[… human IgG1 constant region …]
light: DIVMTQSPLSLPVTPGEPASISCKSSQTLLNSGNQKNYLTWYLQKPGQSPQLLIYWASTGESGVPDRFSGSGSGTDFTLKISRVEAEDVGVYYCQNAYFYPFTFGGGTKVEIKRTVAAPSVFIFPPSDEQLKSGTASVVCLLNNFYPREAKVQWKVDNALQSGNSQESVTEQDSKDSTYSLSSTLTLSKADYEKHKVYACEVTHQGLSSPVTKSFNRGEC
modifications: heavy chain of Claudin18.2 antibody; light chain of Claudin18.2 antibody
Tumor volume (mean ± standard deviation) (SNU601 cell line; [7]): 155.8 mm^3
Tumor volume (mean ± standard deviation) (SNU601 cell line; [8]): 211.3 mm^3
Tumor volume (mean ± standard deviation) (SNU601 cell line; [9]): 280.4 mm^3
Tumor volume (mean ± standard deviation) (SNU601 cell line; [10]): 316.8 mm^3
TGI (Tumor growth inhibition) (SNU601 cell line; [11]): 9.3%
Tumor volume (mean ± standard deviation) (SNU601 cell line; [11]): 384.3 mm^3
Tumor weight (mean ± standard deviation) (SNU601 cell line; [12]): 0.250 ± 0.092 g
total antibody maintained [1]: 72.0%
total antibody maintained [2]: 68.2%
total antibody maintained [3]: 85.2%
internalization [4]: not internalized
total antibody maintained [5]: 97.3%
Body weight (mean ± standard deviation) [6, 7]: 20.2 ± 1.3 g
Body weight (mean ± standard deviation) [6, 11]: 23.0 ± 1.5 g
effects on the changes in body weight [6]: no effects
histological gastric lesions [6]: No histological gastric lesions

B2: ADC-A (conjugate)
heavy: B1 heavy
light: B1 light
Tumor volume (mean ± standard deviation) (SNU601 cell line; [13]): 155.9 mm^3
Tumor volume (mean ± standard deviation) (SNU601 cell line; [14]): 155.7 mm^3
Tumor volume (mean ± standard deviation) (SNU601 cell line; [15]): 155.2 mm^3
Tumor volume (mean ± standard deviation) (SNU601 cell line; [16]): 155.2 mm^3
Tumor volume (mean ± standard deviation) (SNU601 cell line; [7]): 155.9 mm^3
Tumor volume (mean ± standard deviation) (SNU601 cell line; Day 8, 1 mg/kg intravenous injection once/day 1 (G3, G4)): 131.7 mm^3
Tumor volume (mean ± standard deviation) (SNU601 cell line; Day 8, 1 mg/kg intravenous injection twice/day 1 and day 7 (G5)): 132.1 mm^3
Tumor volume (mean ± standard deviation) (SNU601 cell line; Day 8, 1.5 mg/kg intravenous injection once/day 1 (G6)): 95.6 mm^3
Tumor volume (mean ± standard deviation) (SNU601 cell line; Day 8, 1.75 mg/kg intravenous injection once/day 1 (G7)): 72.8 mm^3
Tumor volume (mean ± standard deviation) (SNU601 cell line; [8]): 88.0 mm^3
Tumor volume (mean ± standard deviation) (SNU601 cell line; Day 15, 1 mg/kg intravenous injection once/day 1 (G3, G4)): 132.8 mm^3
Tumor volume (mean ± standard deviation) (SNU601 cell line; Day 15, 1 mg/kg intravenous injection twice/day 1 and day 7 (G5)): 95.3 mm^3
Tumor volume (mean ± standard deviation) (SNU601 cell line; Day 15, 1.5 mg/kg intravenous injection once/day 1 (G6)): 78.8 mm^3
Tumor volume (mean ± standard deviation) (SNU601 cell line; Day 15, 1.75 mg/kg intravenous injection once/day 1 (G7)): 26.5 mm^3
Tumor volume (mean ± standard deviation) (SNU601 cell line; [9]): 62.2 mm^3
Tumor volume (mean ± standard deviation) (SNU601 cell line; Day 22, 1 mg/kg intravenous injection once/day 1 (G3, G4)): 145.0 mm^3
Tumor volume (mean ± standard deviation) (SNU601 cell line; Day 22, 1 mg/kg intravenous injection twice/day 1 and day 7 (G5)): 97.7 mm^3
Tumor volume (mean ± standard deviation) (SNU601 cell line; Day 22, 1.5 mg/kg intravenous injection once/day 1 (G6)): 73.8 mm^3
Tumor volume (mean ± standard deviation) (SNU601 cell line; Day 22, 1.75 mg/kg intravenous injection once/day 1 (G7)): 11.1 mm^3
Tumor volume (mean ± standard deviation) (SNU601 cell line; [10]): 66.2 mm^3
TGI (Tumor growth inhibition) (SNU601 cell line; [17]): 60.1%
Tumor volume (mean ± standard deviation) (SNU601 cell line; [17]): 169.2 mm^3
TGI (Tumor growth inhibition) (SNU601 cell line; [18]): 71.8%
Tumor volume (mean ± standard deviation) (SNU601 cell line; [18]): 119.3 mm^3
TGI (Tumor growth inhibition) (SNU601 cell line; [19]): 79.2%
Tumor volume (mean ± standard deviation) (SNU601 cell line; [19]): 87.7 mm^3
TGI (Tumor growth inhibition) (SNU601 cell line; [20]): 98.3%
Tumor volume (mean ± standard deviation) (SNU601 cell line; [20]): 7.3 mm^3
TGI (Tumor growth inhibition) (SNU601 cell line; [11]): 82.2%
Tumor volume (mean ± standard deviation) (SNU601 cell line; [11]): 75.2 mm^3
Tumor weight (mean ± standard deviation) (SNU601 cell line; 1 mg/kg intravenous injection once/day 1 (G3, G4)): 0.082 ± 0.020 g
Tumor weight (mean ± standard deviation) (SNU601 cell line; 1 mg/kg intravenous injection twice/day 1 and day 7 (G5)): 0.047 ± 0.033 g
Tumor weight (mean ± standard deviation) (SNU601 cell line; 1.5 mg/kg intravenous injection once/day 1 (G6)): 0.038 ± 0.012 g
Tumor weight (mean ± standard deviation) (SNU601 cell line; 1.75 mg/kg intravenous injection once/day 1 (G7)): 0.002 ± 0.006 g
Tumor weight (mean ± standard deviation) (SNU601 cell line; [12]): 0.027 ± 0.035 g
total ADC maintained [1]: 77.0%
total antibody maintained [1]: 78.7%
total ADC maintained [2]: 50.3%
total antibody maintained [2]: 64.0%
total ADC maintained [3]: 75.1%
total antibody maintained [3]: 74.8%
internalization [4]: not internalized
total ADC maintained [5]: 77.5%
total antibody maintained [5]: 90.3%
Body weight (mean ± standard deviation) [6, 13]: 20.2 ± 0.8 g
Body weight (mean ± standard deviation) [6, 14]: 20.0 ± 1.0 g
Body weight (mean ± standard deviation) [6, 15]: 20.1 ± 0.6 g
Body weight (mean ± standard deviation) [6, 16]: 20.4 ± 1.2 g
Body weight (mean ± standard deviation) [6, 7]: 20.8 ± 1.5 g
Body weight (mean ± standard deviation) [6, 17]: 22.2 ± 0.9 g
Body weight (mean ± standard deviation) [6, 18]: 22.3 ± 0.7 g
Body weight (mean ± standard deviation) [6, 19]: 22.8 ± 1.0 g
Body weight (mean ± standard deviation) [6, 20]: 22.6 ± 1.0 g
Body weight (mean ± standard deviation) [6, 11]: 23.6 ± 2.3 g
effects on the changes in body weight [6]: no effects
histological gastric lesions [6]: No histological gastric lesions
